Measured values reported in US20230272055A1, “ANTI-MUTANT CALRETICULIN (CALR) ANTIBODIES AND USES THEREOF” (Incyte Corporation, priority 2021, published 2023).
Residue numbers refer to the chain shown, from its start.

B1: 129 (antibody)
heavy: EVQLVQSGAEVKKPGASVKVSCKVSGYTLTELSMQWVRQAPGKGLEWMGGFDPDDGETMYAEKFQGRLTVTEDTSTDTVYMELSSLRSEDTAVYFCATSPGYDFFDYWGQGTLVTVSSASTKGPSVFPLAPSSKSTSGGTAALGCLVKDYFPEPVTVSWNSGALTSGVHTFPAVLQSSGLYSLSSVVTVPSSSLGTQTYICNVNHKPSNTKVDKRV[omitted - human IgG1 Fc with changes]
light: SYELTQPPSVSVAPGKTARITCGGDNIGSKSVHWYQQKPGQAPVLVVYDDSDRPSGIPERFSGSNSGNTATLTINRVEAGDEADYYCQVWDSSNDLLIFGGGTKLTVLGQPKAAPSVTLFPPSSEELQANKATLVCLISDFYPGAVTVAWKADSSPVKAGVETTTPSKQSNNKYAASSYLSLTPEQWKSHRSYSCQVTHEGSTVEKTVAPTECS
B2: 126 (antibody)
heavy: EVQLVQSGAEVKKPGASVKVSCKVSGYTLTELSMQWVRQAPGKGLEWMGGFDPDSGETMYAEKFQGRLTVTEDTSTDTVYMELRSLTSEDTALYFCATSPGYDFFDYWGQGTLVTVSSASTKGPSVFPLAPSSKSTSGGTAALGCLVKDYFPEPVTVSWNSGALTSGVHTFPAVLQSSGLYSLSSVVTVPSSSLGTQTYICNVNHKPSNTKVDKRV[omitted - human IgG1 Fc with changes]
light: B1 light
B3: 128 (antibody)
heavy: EVQLVQSGAEVKKPGASVKVSCKVSGYTLTELSMQWVRQAPGKGLEWMGGFDPDDAETMYAEKFQGRLTVTEDTSTDTVYMELRSLTSEDTALYFCATSPGYDFFDYWGQGTLVTVSSASTKGPSVFPLAPSSKSTSGGTAALGCLVKDYFPEPVTVSWNSGALTSGVHTFPAVLQSSGLYSLSSVVTVPSSSLGTQTYICNVNHKPSNTKVDKRV[omitted - human IgG1 Fc with changes]
light: B1 light
B4: 124 (antibody)
heavy: EVQLVQSGAEVKKPGASVKVSCKVSGYTLTELSMQWVRQAPGKGLEWMGGFDPDDGETMYAEKFQGRLTVTEDTSTDTVYMELRSLTSEDTALYFCATSPGYDFFDYWGQGTLVTVSSASTKGPSVFPLAPSSKSTSGGTAALGCLVKDYFPEPVTVSWNSGALTSGVHTFPAVLQSSGLYSLSSVVTVPSSSLGTQTYICNVNHKPSNTKVDKRV[omitted - human IgG1 Fc with changes]
light: B1 light
B5: 170 (antibody)
heavy: EVQLVQSGAEVKKPGASVKVSCKVSGYTLTELSMQWVRQAPGKGLEWMGGFDPDDGETMYAEKFQGRLTVTEDTSTDTVYMELRSLTSEDTALYFCATSPGYDFFDYWGQGTLVTVSSASTKGPSVFPLAPSSKSTSGGTAALGCLVKDYFPEPVTVSWNSGALTSGVHTFPAVLQSSGLYSLSSVVTVPSSSLGTQTYICNVNHKPSNTKVDKRV[omitted - human IgG1 Fc with changes]
light: SYVLTQPPSVSVAPGQTARITCGGSDIGDEIVHWYQQKPGQAPVLVVYDDSDRPSGIPERFSGSNSGNTATLTISRAQAGDEADYYCQVWDSSSDHLIFGGGTKLTVLGQPKAAPSVTLFPPSSEELQANKATLVCLISDFYPGAVTVAWKADSSPVKAGVETTTPSKQSNNKYAASSYLSLTPEQWKSHRSYSCQVTHEGSTVEKTVAPTECS
B6: 57 (antibody)
heavy: EVQLVQSGAEVKKPGASVKVSCKVSGYTLTELSMQWVRQAPGKGLEWMGGFDPDSGETMYAEKFQGRLTVTEDTSTDTVYMELRSLTSEDTALYFCATSPGYDFFDYWGQGTLVTVSSASTKGPSVFPLAPSSKSTSGGTAALGCLVKDYFPEPVTVSWNSGALTSGVHTFPAVLQSSGLYSLSSVVTVPSSSLGTQTYICNVNHKPSNTKVDKRV[omitted - human IgG1 Fc with changes]
light: QSALTQPASVSGSPGQSITISCTGTSSDVGGYNYVSWYQQHPGKAPKLMIYEVSNRPSGVSNRFSGSNSGNTATLTINRVEAGDEADYYCQVWDSSNDLLIFGGGTKLTVLGQPKAAPSVTLFPPSSEELQANKATLVCLISDFYPGAVTVAWKADSSPVKAGVETTTPSKQSNNKYAASSYLSLTPEQWKSHRSYSCQVTHEGSTVEKTVAPTECS
B7: 175 (antibody)
heavy: EVQLVQSGAEVKKPGASVKVSCKVSGYTLTELSMQWVRQAPGKGLEWMGGFDPDDGETMYAEKFQGRLTVTEDTSTDTVYMELSSLRSEDTAVYFCATSPGYDFFDYWGQGTLVTVSSASTKGPSVFPLAPSSKSTSGGTAALGCLVKDYFPEPVTVSWNSGALTSGVHTFPAVLQSSGLYSLSSVVTVPSSSLGTQTYICNVNHKPSNTKVDKRV[omitted - human IgG1 Fc with changes]
light: B5 light
B8: 60 (antibody)
heavy: EVQLVQSGAEVKKPGASVKVSCKVSGYTLTELSMQWVRQAPGKGLEWMGGFDPDDGETMYAEKFQGRLTVTEDTSTDTVYMELSSLRSEDTAVYFCATSPGYDFFDYWGQGTLVTVSSASTKGPSVFPLAPSSKSTSGGTAALGCLVKDYFPEPVTVSWNSGALTSGVHTFPAVLQSSGLYSLSSVVTVPSSSLGTQTYICNVNHKPSNTKVDKRV[omitted - human IgG1 Fc with changes]
light: B6 light
B9: 9 (antibody)
heavy: EVQLVQSGAEVKKPGASVKVSCKVSGYTLTELSMQWVRQAPGKGLEWMGGFDPDDGETMYAEKFQGRLTVTEDTSTDTVYMELRSLTSEDTALYFCATSPGYDFFDYWGQGTLVTVSSASTKGPSVFPLAPSSKSTSGGTAALGCLVKDYFPEPVTVSWNSGALTSGVHTFPAVLQSSGLYSLSSVVTVPSSSLGTQTYICNVNHKPSNTKVDKRV[omitted - human IgG1 Fc]
light: B1 light with E3V, K16Q, T21P, D25N, S51R
B10: 20 (antibody)
heavy: B9 heavy
light: B1 light with E3V, D25N, S31G
B11: 3 (antibody)
heavy: B9 heavy with K63R
light: B1 light with E3V, K16Q, D25N
B12: 23 (antibody)
heavy: B9 heavy
light: B1 light with E3V, K16Q, D25N, S29I
B13: 18 (antibody)
heavy: B9 heavy
light: B1 light with E3V, D25N, S55L
B14: 10 (antibody)
heavy: B9 heavy
light: B1 light with K16Q, T21P, D25N, K30E, S31G, N75S
B15: 22 (antibody)
heavy: B9 heavy
light: B1 light with E3V, D25N, S31N
B16: 42 (antibody)
heavy: EVQLVQSGAEVKKPGASVKVSCKVSGYTLTELSMHWVRQAPGKGLEWMGLVDPEDGETIYAQKFQGRVTMTEDTSTDTAYMELSSLRSEDTAVYYCAREEWSGDGDDAFDIWGQGTMVTVSSASTKGPSVFPLAPSSKSTSGGTAALGCLVKDYFPEPVTVSWNSGALTSGVHTFPAVLQSSGLYSLSSVVTVPSSSLGTQTYICNVNHKPSNTKVDKRV[omitted - human IgG1 Fc]
light: QSVLTQPPSVSAAPGQKVTISCSGSSSNIGSYSVSWYQQLPGTAPKLLIYDDNKRPSGIPDRFSGSNSGTSATLSITGLQTGDEADYYCGTWDSSLSAWVFGGGTKLTVLGQPKAAPSVTLFPPSSEELQANKATLVCLISDFYPGAVTVAWKADSSPVKAGVETTTPSKQSNNKYAASSYLSLTPEQWKSHRSYSCQVTHEGSTVEKTVAPTECS

Target: T1, recombinant MBP-mutCALR Type 1 fusion protein (Homo sapiens, UniProt P27797, DEL40-40)
T1 construct: His6 (N); purchased Cepter (cepterbiopartners.com), custom made
Test: Biacore SPR binding kinetics, Experiment 2 (parental and variant antibodies)
Conditions: Biacore 8K, 25° C., 1:1 binding model

Molecule | ka [M⁻¹ s⁻¹] | kd [s⁻¹]
B1 | 9.94e+06 | 0.00527
B2 | 1.29e+06 | 0.00153
B3 | 1.29e+06 | 0.00207
B4 | 1.23e+06 | 0.00128
B5 | 4.27e+06 | 0.00179
B6 | 6.12e+06 | 0.0039
B7 | 4.53e+06 | 0.00631
B8 | 1.44e+06 | 0.00166

Target: T1, recombinant MBP-mutCALR Type 1 fusion protein
Test: Biacore SPR binding kinetics, Experiment 1
Conditions: Biacore 8K, 25° C., 1:1 binding model
Procedure: The amino acid sequence of recombinant MBP-mutCALR Type 1 fusion protein used in Experiments 1 and 2 is:
Experiment 1: Recombinant MBP-mutCALR Type 1 fusion protein was custom made at Cepter (cepterbiopartners.com). Data for the interaction of antibodies with recombinant MBP-mutCALR Type 1 fusion protein were collected at 25° C. on a Biacore 8K instrument (Cytiva, Marlborough, Mass.), and all reagents were obtained from Cytiva unless otherwise specified. The experiments were conducted using Tris-buffered saline (pH 7.2), 0.005% Surfactant P20, 1 mM CaCl2) as running buffer. To prepare the capture surfaces, anti-human IgG (Fc) antibodies (Product #29234600) was amine-coupled onto a CM4 chip (Product #BR100534) under standard conditions using an Amine Coupling Kit (Product #BR100050). Anti-mutCALR antibodies were captured onto the chip surface by injecting over flow cell 2 only at a flow rate of 30 μL/min for 30 seconds. […] The kinetics parameters were obtained by applying 1:1 binding model to fit the data from multiple-cycle injection experiments using Biacore Insight Evaluation software.

Molecule | ka [M⁻¹ s⁻¹] | kd [s⁻¹]
B9 | 3.02e+06 | 0.00904
B10 | 1.12e+06 | 0.00498
B11 | 2.08e+06 | 0.00716
B12 | 785000 | 0.00343
B13 | 2.37e+06 | 0.00628
B14 | 2.11e+06 | 0.00292
B15 | 229000 | 0.00289
B16 | 649000 | 0.00452

Test system: Ba/F3 cells transfected with MPL and mutCALR Type 1
Test: Inhibition of cell proliferation, CellTiter-Glo 72 hours, mutCALR Type 1
Format: cell-based
Conditions: Ba/F3 engineered cells, high-throughput primary screening
Procedure: To test the ability of anti-mutCALR antibodies to inhibit cell proliferation, engineered Ba/F3 cells transfected with MPL and mutCALR Type 1 were plated at 5,000 cells per well in RPMI 1640+2% FBS, antibodies added, incubated for 72 hours, and followed by assessment of cell viability using the CellTiter-Glo Luminescent Cell Viability Assay (Promega, Madison, Wis.) and Top Count (Perkin Elmer, Boston, Mass.) or Pherastar (BMG Labtech, Ortenberg, Germany) for luminescence quantification. Anti-mutCALR antibodies inhibit mutCALR-induced oncogenic cell proliferation in a dose-dependent manner in both the Ba/F3 engineered cells (FIG. 2).
To test the ability of anti-mutCALR antibodies to inhibit oncogenic cell proliferation triggered by the Type 1 and Type 2 CALR mutations, Ba/F3 cells (DSMZ) were engineered to express MPL+mutCALR Type 1 (52 bp deletion, SEQ ID NO:320) or MPL+mutCALR Type 2 (5 bp insertion; SEQ ID NO:321). Cells were plated at 5,000 cells per well in RPMI 1640+2% FBS, antibodies added, incubated for 72 hours, and followed by assessment of cell viability using the CellTiter-Glo Luminescent Cell Viability Assay (Promega, Madison, Wis.) and Top Count (Perkin Elmer, Boston, Mass.) or Pherastar (BMG Labtech, Ortenberg, Germany) for luminescence quantification. Anti-mutant CALR antibodies show potency to inhibit mutCALR-induced oncogenic cell proliferation associated with both Type 1 and Type 2 mutations (FIG. 3).

Molecule | IC50 inhibition of cell proliferation [ng/mL]
B9 | 4.6
B10 | 13.6
B11 | 9.5
B12 | 6.5
B13 | 9
B14 | 7.2
B15 | 7.7
B3 | 9.8
B4 | 4
B5 | 1.9
